Data from PubChem BioAssay AID1460 (National Center for Advancing Translational Sciences (NCATS), 2008).
Where “and” joins values, the source holds several entries; their conditions need not be identical. Identical values can stand only once. Hit rate of the full screen: of about 270,000 compounds, about 5,800 (2.1%) were called active. Roughly 16% stayed inconclusive and do not appear here. The call rests on the fitted dose curve; in most records, active means well fitted inhibition curve with a large enough effect; inconclusive means small, poorly fitted or top-dose-only effect; inactive means flat fitted curve, though single readings scatter. The list shows a part of the results, in another mix than the full data.

Biological target: Microtubule-associated protein tau (Homo sapiens) (UniProt P10636)
UniProt P10636, sequence (P10636 whole entry, looked up): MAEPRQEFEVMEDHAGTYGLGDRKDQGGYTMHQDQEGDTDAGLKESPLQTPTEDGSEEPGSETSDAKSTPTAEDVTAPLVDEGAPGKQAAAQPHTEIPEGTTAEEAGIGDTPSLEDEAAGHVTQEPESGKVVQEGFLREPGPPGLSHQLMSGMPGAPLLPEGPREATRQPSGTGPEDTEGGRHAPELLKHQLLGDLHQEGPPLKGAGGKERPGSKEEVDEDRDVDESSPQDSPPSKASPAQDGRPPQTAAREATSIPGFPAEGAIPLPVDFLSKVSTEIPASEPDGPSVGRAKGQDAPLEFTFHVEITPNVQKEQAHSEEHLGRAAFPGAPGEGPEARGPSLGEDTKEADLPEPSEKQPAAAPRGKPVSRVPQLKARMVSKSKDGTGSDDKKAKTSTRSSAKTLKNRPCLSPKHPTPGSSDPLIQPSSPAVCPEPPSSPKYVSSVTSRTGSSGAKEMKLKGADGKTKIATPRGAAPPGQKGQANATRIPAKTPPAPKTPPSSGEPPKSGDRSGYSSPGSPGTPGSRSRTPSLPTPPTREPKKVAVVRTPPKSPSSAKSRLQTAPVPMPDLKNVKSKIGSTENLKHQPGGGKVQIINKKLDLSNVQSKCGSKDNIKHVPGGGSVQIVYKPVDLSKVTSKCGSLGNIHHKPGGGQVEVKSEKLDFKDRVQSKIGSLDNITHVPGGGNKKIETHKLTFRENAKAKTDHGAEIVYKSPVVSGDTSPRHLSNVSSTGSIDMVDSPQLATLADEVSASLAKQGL
Test: qHTS for Inhibitors of Tau Fibril Formation, Thioflavin T Binding; further: nearly all actives have a fitted effect of over 55% in size
Details: recombinant tau K18 P301L (four-repeat tau fragment), heparin-induced fibrillization, ThT fluorescence; series mostly up to 57.4 µM; activity, negative = inhibition: at the top concentration
Outline: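 Recombinant human tau K18 fragment […] carrying P301L, 15 uM unlabeled plus 0.24 uM Alexa 594-labeled, was fibrillized with 20 uM heparin in 100 mM sodium acetate pH 7 for 6 hr at 37 C; 30 uM ThT fluorescence read after 1 hr.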
On the % scale 0 is the no-effect control and ±100 the full control effect; potency means the concentration at half of the fitted maximal effect.

SMILES | Potency | activity, negative = inhibition
CNC(=O)c1cc2c(cn1)[nH]c1ccccc12 | inactive | 
Cc1ccc2c(c1)C1C=CCC1C(C(=O)O)N2 (stereo not drawn) | active: 14.1 µM | 
CCCNC(C)C(=O)Nc1ccccc1C (stereo not drawn) | inactive | 
CC1=C(C#N)C(=O)NC(=O)/C1=C/c1ccc(-c2ccc(S(N)(=O)=O)cc2)o1 | active: 15.8 µM | 
CC1(OC(=O)CCc2ccccc2)C(=O)C=C2C=C(c3ccc(C#N)cc3)N(C(CO)CO)C=C2C1=O (stereo not drawn) |  | inactive: -18% [at 11.5 µM]
CC(C)CN1C(=O)/C(=C(/C#N)C(=O)NC2CCCCC2)c2ccccc21 | active: 17.8 µM | 
CC(=O)NCc1ccc(S(=O)(=O)NC(C(=O)O)C(C)C)cc1 (stereo not drawn) | active: 25.1 µM | 
Cc1ccc(OCC(O)Cn2c(=N)n(CCN3CCCCC3)c3ccccc32)cc1 (stereo not drawn) |  | inactive: -9%
O=c1c(O)c(-c2ccc(O)c(O)c2)oc2c(OC3OC(CO)C(O)C(O)C3O)c(O)cc(O)c12 (stereo not drawn) | active: 14.1 µM | 
CC1=C(C#N)C(NC(=O)c2cccc(Cl)c2)(C(F)(F)F)C(=O)N1 (stereo not drawn) |  | inactive: -1.44%
CO[C@@H]1COC(=O)C/C=C\[C@H](C)[C@@H](NS(=O)(=O)c2ccc(C)cc2)COC(=O)C/C=C\[C@@H]1C |  | inactive: -5.14% [at 11.5 µM] and inactive: -10.7% [at 11.5 µM]
FC(F)(F)c1ccccc1-n1ccnc1 | inactive | 
COc1cc2c(cc1OC)-c1cc(=Nc3c(C)cc(C)cc3C)n(C)c(=O)n1CC2 | inactive | 
CC(=O)OCC1OC(Sc2cccc3cccnc23)C(OC(C)=O)C(OC(C)=O)C1OC(C)=O (stereo not drawn) |  | inactive: -9.57%
CCOC(=O)c1sc(=S)n2c1[nH]c(=O)c1ccc(C(=O)OC)cc12 | active: 7.08 µM | 
CCN1CCN(c2cc3c(cc2F)c(=O)c(C(=O)O)cn3C2CC2)CC1 |  | inactive: -2.69%
O=C(NNc1cc(Br)c(O)c(Br)c1)c1ccccc1 | active: 5.01 µM | 
Cc1ccc(CSc2nnc(CCNC(=O)OC(C)(C)C)o2)cc1 |  | inactive: -6.51%
CC1CCC2C(=O)OC(Cc3ccccc3)CN2C1c1ccc(Br)cc1 (stereo not drawn) |  | inactive: -14.4% [at 11.5 µM]
C#C[C@@]1(O)CCC2C3CCc4cc(O)ccc4C3CC[C@@]21C (stereo partly drawn) |  | inactive: -15.4%
CCc1ccc(NC(=O)CSc2nnc(CC)c(CC)n2)cc1 |  | inactive: -7.77%
COc1cccc(C(=O)Nc2ccc3nc(N4CCOCC4)cc(C)c3c2)c1 | active: 5.01 µM | 
C[C@]12CC[C@@H]3c4ccc(O)cc4CC[C@H]3[C@@H]1CC[C@H]2O |  | inactive: -7.27%
Cc1ccc(C(=O)Nc2cnc3ccccn3c2=O)cc1 |  | inactive: -22.1%

SMILES | Potency | activity, negative = inhibition
CCC1=C(OC(=O)N(CC)CC)N2C(=O)OC(=NCCc3c[nH]c4ccccc34)[C@]2(Cc2ccccc2)[C@H]2C1=CC[C@H]1C(=O)N(C)C(=O)[C@H]12 |  | inactive: -12.6%
COc1cccc(N2C(=O)CC(Nc3ccc(N4CCOCC4)cc3)C2=O)c1 (stereo not drawn) | active: 14.1 µM | 
O=C1/C(=C/c2ccc(C(=O)O)cc2)CCC/C1=C\c1ccc(C(=O)O)cc1 | active: 10 µM | 
O=C(N/N=C(\CC(=O)c1cccs1)C(F)(F)F)c1ccncc1 | active: 14.1 µM | 
O=C1c2cccc3c(Nc4ccccc4Cl)c([N+](=O)[O-])cc(c23)C(=O)N1CCO | active: 11.2 µM | 
O=C(O)c1ccc(Cl)c2c1C1C=CCC1C(c1ccccn1)N2 (stereo not drawn) | active: 14.1 µM | 
COC(=O)c1ccc(C23CC4(C2)[C@H](CN(C)[C@@H]4c2ccccc2)C3c2ccc(Cl)nc2)cc1 (stereo partly drawn) |  | inactive: -13.1%
O=C(NCc1ccccc1)c1ccc(-c2ccccc2C(F)(F)F)o1 |  | inactive: -12.8%
CN(C)C1C(=O)C(C(N)=O)=C(O)[C@@]2(O)C(=O)C3=C(O)c4c(O)ccc(Cl)c4C(O)[C@H]3C[C@@H]12 (stereo partly drawn) |  | inactive: -5.89%
Cc1ccc2oc(=O)c3cnn(CC(=O)N4CCN(c5ccccc5)CC4)c3c2c1 |  | inactive: -15.4%
CC(C)=CCC/C(C)=C/CC/C(C)=C/CSCC(=O)O | inactive | 
Cc1ccc2[nH]c(C)c(/C=N/Nc3nc4ccccc4s3)c2c1 | active: 14.1 µM | 
C[C@@H]1C=C[C@](Cc2ccccc2)(C(=O)NCCc2c[nH]c3ccccc23)N1C(=O)c1ccccc1 |  | inactive: -14.3%
NC(=O)C1=C[C@H](c2csc3ccccc23)C[C@H](OCc2ccc(CO)cc2)O1 |  | inactive: -8.4%
O=C1N/C(=N\S(=O)(=O)Cc2ccccc2)S/C1=C/c1cc([N+](=O)[O-])ccc1O | active: 5.01 µM | 
CC(/C=C/c1cccc(Oc2ccc(F)cc2)c1)N(O)C(N)=O (stereo not drawn) |  | inactive: -21.1%
O=C1OCCN1/N=C/c1ccc([N+](=O)[O-])o1 |  | inactive: -13.8%
O=C(NNc1c2ccccc2nc2ccccc12)c1ccccc1O | active: 2.24 µM | 
Nc1nc(-c2ccccc2)c(N=Nc2ccccc2Cl)s1 | active: 5.01 µM | 
CCOC(=O)/C(C#N)=C/C1=C(N2CCOCC2)CC(C)(C)OC1 |  | inactive: -16.1%
COc1ccc2nc(Nc3sc4c(c3C(N)=O)CCCC4)sc2c1 | active: 7.08 µM | 
Cc1cc(C)c[n+](-c2nc3ccccc3nc2C(=C=[N-])C#N)c1 |  | inactive: -4.67%
O=[N+]([O-])c1cccc2cn[nH]c12 | inactive | 
Cc1ccc(C(=O)Nc2ccc(N3CCCC3)cc2)c(C)c1 | active: 14.1 µM | 
